Drawing on PMC3989272, this text covers binding for 5 molecules.

The chains behind the UniProt entries cited, without tags or fusion partners.
UniProt P29476: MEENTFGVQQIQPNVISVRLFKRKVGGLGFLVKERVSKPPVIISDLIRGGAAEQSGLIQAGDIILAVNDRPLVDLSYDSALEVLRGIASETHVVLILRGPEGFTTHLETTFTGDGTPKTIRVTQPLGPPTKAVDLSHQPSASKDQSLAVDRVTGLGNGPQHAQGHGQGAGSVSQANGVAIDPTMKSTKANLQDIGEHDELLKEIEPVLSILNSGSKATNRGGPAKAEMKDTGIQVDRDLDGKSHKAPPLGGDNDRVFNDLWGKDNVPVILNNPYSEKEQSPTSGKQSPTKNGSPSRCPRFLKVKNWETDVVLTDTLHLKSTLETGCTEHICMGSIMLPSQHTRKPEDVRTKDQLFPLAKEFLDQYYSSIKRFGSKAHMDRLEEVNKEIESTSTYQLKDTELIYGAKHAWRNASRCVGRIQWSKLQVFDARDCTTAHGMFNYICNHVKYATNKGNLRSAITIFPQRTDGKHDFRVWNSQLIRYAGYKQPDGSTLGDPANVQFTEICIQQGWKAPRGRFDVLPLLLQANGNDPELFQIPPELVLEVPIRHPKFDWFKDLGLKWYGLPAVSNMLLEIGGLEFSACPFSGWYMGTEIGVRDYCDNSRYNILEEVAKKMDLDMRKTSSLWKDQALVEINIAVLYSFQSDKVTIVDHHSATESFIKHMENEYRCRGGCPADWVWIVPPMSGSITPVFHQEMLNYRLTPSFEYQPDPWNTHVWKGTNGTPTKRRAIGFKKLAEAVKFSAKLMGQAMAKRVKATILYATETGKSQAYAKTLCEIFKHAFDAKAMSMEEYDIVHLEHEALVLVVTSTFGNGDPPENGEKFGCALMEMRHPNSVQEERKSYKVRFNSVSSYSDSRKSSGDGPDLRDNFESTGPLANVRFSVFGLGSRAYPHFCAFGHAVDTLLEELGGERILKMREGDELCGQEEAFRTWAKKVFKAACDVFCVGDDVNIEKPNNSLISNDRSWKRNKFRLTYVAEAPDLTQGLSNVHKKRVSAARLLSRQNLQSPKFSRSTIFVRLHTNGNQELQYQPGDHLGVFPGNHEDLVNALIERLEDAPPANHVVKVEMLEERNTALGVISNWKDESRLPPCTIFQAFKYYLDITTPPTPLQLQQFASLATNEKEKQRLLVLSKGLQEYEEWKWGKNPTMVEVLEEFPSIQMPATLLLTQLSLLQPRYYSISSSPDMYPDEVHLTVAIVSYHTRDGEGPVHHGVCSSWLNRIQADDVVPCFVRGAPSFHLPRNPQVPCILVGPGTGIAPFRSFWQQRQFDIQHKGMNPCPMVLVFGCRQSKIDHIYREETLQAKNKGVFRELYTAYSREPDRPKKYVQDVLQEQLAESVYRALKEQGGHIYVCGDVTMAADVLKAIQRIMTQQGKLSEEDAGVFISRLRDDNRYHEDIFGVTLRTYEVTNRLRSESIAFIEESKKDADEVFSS

Experiment [1] deals with Myc-tagged wild-type rat nNOS (rat) (UniProt P29476). Briefly: co-IP; HEK293T cells cotransfected with Myc-nNOS and GFP-PKD1 forms, untreated or treated with 200 nM PDBu for 15 min; RIPA lysates, immunoprecipitation with anti-Myc antibody 4 h at 4°C, immunoblot with anti-GFP and anti-Myc. (A western blot detects proteins with antibodies after separation by electrophoresis.)

For experiment [2] the target is unchanged. Kind of experiment: co-IP; transient transfection of HEK293T cells with PKD2 and nNOS, coimmunoprecipitation analysis (Figure S1).

These are yes or no findings as the source states them, for the method shown. In cells and extracts the contact can be indirect. Some binding calls cover weakened binding; strength is not graded here. For some assays here: Sequences can lack the tags named with a protein.

B1: GFP fused to PKD1 wild-type (enzyme, UniProt Q62101 1-918)
chain: MSVPPLLRPPSPLLPAAAAVAAAAAALVPGSGPAPFPAPGAAPAGGISFHLQIGLSREPVLLLQDSSGDYSLAHVREMACSIVDQKFPECGFYGLYDKILLFRHDPASDNILQLVKIASDIQEGDLIEVVLSASATFEDFQIRPHALFVHSYRAPAFCDHCGEMLWGLVRQGLKCEGCGLNYHKRCAFKIPNNCSGVRRRRLSNVSLTGLGTVRTASAEFSTSVPDEPLLSPVSPGFEQKSPSESFIGREKRSNSQSYIGRPIQLDKLLMSKVKVPHTFVIHSYTRPTVCQFCKKLLKGLFRQGLQCKDCRFNCHKRCAPKVPNNCLGEVTINGELLSPGAESDVVMEEGSDDNDSERNSGLMDDMDEAMVQDTEMALAEGQSGGAEMQDPDADQEDSNRTISPSTSNNIPLMRVVQSVKHTKRRSSTVMKEGWMVHYTSKDTLRKRHYWRLDSKCITLFQNDTGSRYYKEIPLSEILCLEPAKPSALTPVGATPHCFEITTANVVYYVGENVVNPSSSPPNNSVLPSGIGPDVARMWEVAIQHALMPVIPKGSSVGSGSNSHKDISVSISVSNCQIQENVDISTVYQIFPDEVLGSGQFGIVYGGKHRKTGRDVAIKIIDKLRFPTKQESQLRNEVAILQNLHHPGVVNLECMFETPERVFVVMEKLHGDMLEMILSSEKGRLPEHITKFLITQILVALRHLHFKNIVHCDLKPENVLLASADPFPQVKLCDFGFARIIGEKSFRRSVVGTPAYLAPEVLRNKGYNRSLDMWSVGVIIYVSLSGTFPFNEDEDIHDQIQNAAFMYPPNPWKEISHEAIDLINNLLQVKMRKRYSVDKTLSHPWLQDYQTWLDLRELECRIGERYITHESDDSRWEQYAGEQGLQYPAHLISLSASHSDSPEAEEREMKALSERVSIL
Turning to B1, the binding result in experiment [1] is on record as “binds”.

B2: GFP-PKD1-Ser916Ala (enzyme, UniProt Q62101 1-918)
chain: MSVPPLLRPPSPLLPAAAAVAAAAAALVPGSGPAPFPAPGAAPAGGISFHLQIGLSREPVLLLQDSSGDYSLAHVREMACSIVDQKFPECGFYGLYDKILLFRHDPASDNILQLVKIASDIQEGDLIEVVLSASATFEDFQIRPHALFVHSYRAPAFCDHCGEMLWGLVRQGLKCEGCGLNYHKRCAFKIPNNCSGVRRRRLSNVSLTGLGTVRTASAEFSTSVPDEPLLSPVSPGFEQKSPSESFIGREKRSNSQSYIGRPIQLDKLLMSKVKVPHTFVIHSYTRPTVCQFCKKLLKGLFRQGLQCKDCRFNCHKRCAPKVPNNCLGEVTINGELLSPGAESDVVMEEGSDDNDSERNSGLMDDMDEAMVQDTEMALAEGQSGGAEMQDPDADQEDSNRTISPSTSNNIPLMRVVQSVKHTKRRSSTVMKEGWMVHYTSKDTLRKRHYWRLDSKCITLFQNDTGSRYYKEIPLSEILCLEPAKPSALTPVGATPHCFEITTANVVYYVGENVVNPSSSPPNNSVLPSGIGPDVARMWEVAIQHALMPVIPKGSSVGSGSNSHKDISVSISVSNCQIQENVDISTVYQIFPDEVLGSGQFGIVYGGKHRKTGRDVAIKIIDKLRFPTKQESQLRNEVAILQNLHHPGVVNLECMFETPERVFVVMEKLHGDMLEMILSSEKGRLPEHITKFLITQILVALRHLHFKNIVHCDLKPENVLLASADPFPQVKLCDFGFARIIGEKSFRRSVVGTPAYLAPEVLRNKGYNRSLDMWSVGVIIYVSLSGTFPFNEDEDIHDQIQNAAFMYPPNPWKEISHEAIDLINNLLQVKMRKRYSVDKTLSHPWLQDYQTWLDLRELECRIGERYITHESDDSRWEQYAGEQGLQYPAHLISLSASHSDSPEAEEREMKALSERVAIL
Consider B2, for which the binding result in experiment [1] is “binds”.

B3: GFP-PKD1-Ser916Glu (enzyme, UniProt Q62101 1-918)
chain: MSVPPLLRPPSPLLPAAAAVAAAAAALVPGSGPAPFPAPGAAPAGGISFHLQIGLSREPVLLLQDSSGDYSLAHVREMACSIVDQKFPECGFYGLYDKILLFRHDPASDNILQLVKIASDIQEGDLIEVVLSASATFEDFQIRPHALFVHSYRAPAFCDHCGEMLWGLVRQGLKCEGCGLNYHKRCAFKIPNNCSGVRRRRLSNVSLTGLGTVRTASAEFSTSVPDEPLLSPVSPGFEQKSPSESFIGREKRSNSQSYIGRPIQLDKLLMSKVKVPHTFVIHSYTRPTVCQFCKKLLKGLFRQGLQCKDCRFNCHKRCAPKVPNNCLGEVTINGELLSPGAESDVVMEEGSDDNDSERNSGLMDDMDEAMVQDTEMALAEGQSGGAEMQDPDADQEDSNRTISPSTSNNIPLMRVVQSVKHTKRRSSTVMKEGWMVHYTSKDTLRKRHYWRLDSKCITLFQNDTGSRYYKEIPLSEILCLEPAKPSALTPVGATPHCFEITTANVVYYVGENVVNPSSSPPNNSVLPSGIGPDVARMWEVAIQHALMPVIPKGSSVGSGSNSHKDISVSISVSNCQIQENVDISTVYQIFPDEVLGSGQFGIVYGGKHRKTGRDVAIKIIDKLRFPTKQESQLRNEVAILQNLHHPGVVNLECMFETPERVFVVMEKLHGDMLEMILSSEKGRLPEHITKFLITQILVALRHLHFKNIVHCDLKPENVLLASADPFPQVKLCDFGFARIIGEKSFRRSVVGTPAYLAPEVLRNKGYNRSLDMWSVGVIIYVSLSGTFPFNEDEDIHDQIQNAAFMYPPNPWKEISHEAIDLINNLLQVKMRKRYSVDKTLSHPWLQDYQTWLDLRELECRIGERYITHESDDSRWEQYAGEQGLQYPAHLISLSASHSDSPEAEEREMKALSERVEIL
Regarding B3, in experiment [1], the binding result is reported as “binds”.

B4: GFP-PKD1 lacking its PDZ-ligand (domain or fragment, UniProt Q62101 1-915)
chain: MSVPPLLRPPSPLLPAAAAVAAAAAALVPGSGPAPFPAPGAAPAGGISFHLQIGLSREPVLLLQDSSGDYSLAHVREMACSIVDQKFPECGFYGLYDKILLFRHDPASDNILQLVKIASDIQEGDLIEVVLSASATFEDFQIRPHALFVHSYRAPAFCDHCGEMLWGLVRQGLKCEGCGLNYHKRCAFKIPNNCSGVRRRRLSNVSLTGLGTVRTASAEFSTSVPDEPLLSPVSPGFEQKSPSESFIGREKRSNSQSYIGRPIQLDKLLMSKVKVPHTFVIHSYTRPTVCQFCKKLLKGLFRQGLQCKDCRFNCHKRCAPKVPNNCLGEVTINGELLSPGAESDVVMEEGSDDNDSERNSGLMDDMDEAMVQDTEMALAEGQSGGAEMQDPDADQEDSNRTISPSTSNNIPLMRVVQSVKHTKRRSSTVMKEGWMVHYTSKDTLRKRHYWRLDSKCITLFQNDTGSRYYKEIPLSEILCLEPAKPSALTPVGATPHCFEITTANVVYYVGENVVNPSSSPPNNSVLPSGIGPDVARMWEVAIQHALMPVIPKGSSVGSGSNSHKDISVSISVSNCQIQENVDISTVYQIFPDEVLGSGQFGIVYGGKHRKTGRDVAIKIIDKLRFPTKQESQLRNEVAILQNLHHPGVVNLECMFETPERVFVVMEKLHGDMLEMILSSEKGRLPEHITKFLITQILVALRHLHFKNIVHCDLKPENVLLASADPFPQVKLCDFGFARIIGEKSFRRSVVGTPAYLAPEVLRNKGYNRSLDMWSVGVIIYVSLSGTFPFNEDEDIHDQIQNAAFMYPPNPWKEISHEAIDLINNLLQVKMRKRYSVDKTLSHPWLQDYQTWLDLRELECRIGERYITHESDDSRWEQYAGEQGLQYPAHLISLSASHSDSPEAEEREMKALSERV
Regarding B4, in experiment [1], the binding entry is “binds”.

B5: full-length PKD2 (enzyme, UniProt Q9BZL6 1-878)
chain: MATAPSYPAGLPGSPGPGSPPPPGGLELQSPPPLLPQIPAPGSGVSFHIQIGLTREFVLLPAASELAHVKQLACSIVDQKFPECGFYGLYDKILLFKHDPTSANLLQLVRSSGDIQEGDLVEVVLSASATFEDFQIRPHALTVHSYRAPAFCDHCGEMLFGLVRQGLKCDGCGLNYHKRCAFSIPNNCSGARKRRLSSTSLASGHSVRLGTSESLPCTAEELSRSTTELLPRRPPSSSSSSSASSYTGRPIELDKMLLSKVKVPHTFLIHSYTRPTVCQACKKLLKGLFRQGLQCKDCKFNCHKRCATRVPNDCLGEALINGDVPMEEATDFSEADKSALMDESEDSGVIPGSHSENALHASEEEEGEGGKAQSSLGYIPLMRVVQSVRHTTRKSSTTLREGWVVHYSNKDTLRKRHYWRLDCKCITLFQNNTTNRYYKEIPLSEILTVESAQNFSLVPPGTNPHCFEIVTANATYFVGEMPGGTPGGPSGQGAEAARGWETAIRQALMPVILQDAPSAPGHAPHRQASLSISVSNSQIQENVDIATVYQIFPDEVLGSGQFGVVYGGKHRKTGRDVAVKVIDKLRFPTKQESQLRNEVAILQSLRHPGIVNLECMFETPEKVFVVMEKLHGDMLEMILSSEKGRLPERLTKFLITQILVALRHLHFKNIVHCDLKPENVLLASADPFPQVKLCDFGFARIIGEKSFRRSVVGTPAYLAPEVLLNQGYNRSLDMWSVGVIMYVSLSGTFPFNEDEDINDQIQNAAFMYPASPWSHISAGAIDLINNLLQVKMRKRYSVDKSLSHPWLQEYQTWLDLRELEGKMGERYITHESDDARWEQFAAEHPLPGSGLPTDRDLGGACPPQDHDMQGLAERISVL
With B5, the binding result in experiment [2] was “binds weakly”.
